{
  "source": "paper PMC4336329",
  "about": "(PLoS ONE, 2015)",
  "note": "The whole screen tested about 310,000 compounds, of which about 14,000 (4.5%) showed an effect of 50% or more. The effect is printed as a negative number. Some of the results follow.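 Further: peak tail current of the secondary pulse compared with the same well before compound.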",
  "data": [
    {"molecular_target": "human ether-à-go-go-related gene (hERG) potassium channel (human, UniProt Q12809)", "sequence (Q12809 whole entry, looked up)": "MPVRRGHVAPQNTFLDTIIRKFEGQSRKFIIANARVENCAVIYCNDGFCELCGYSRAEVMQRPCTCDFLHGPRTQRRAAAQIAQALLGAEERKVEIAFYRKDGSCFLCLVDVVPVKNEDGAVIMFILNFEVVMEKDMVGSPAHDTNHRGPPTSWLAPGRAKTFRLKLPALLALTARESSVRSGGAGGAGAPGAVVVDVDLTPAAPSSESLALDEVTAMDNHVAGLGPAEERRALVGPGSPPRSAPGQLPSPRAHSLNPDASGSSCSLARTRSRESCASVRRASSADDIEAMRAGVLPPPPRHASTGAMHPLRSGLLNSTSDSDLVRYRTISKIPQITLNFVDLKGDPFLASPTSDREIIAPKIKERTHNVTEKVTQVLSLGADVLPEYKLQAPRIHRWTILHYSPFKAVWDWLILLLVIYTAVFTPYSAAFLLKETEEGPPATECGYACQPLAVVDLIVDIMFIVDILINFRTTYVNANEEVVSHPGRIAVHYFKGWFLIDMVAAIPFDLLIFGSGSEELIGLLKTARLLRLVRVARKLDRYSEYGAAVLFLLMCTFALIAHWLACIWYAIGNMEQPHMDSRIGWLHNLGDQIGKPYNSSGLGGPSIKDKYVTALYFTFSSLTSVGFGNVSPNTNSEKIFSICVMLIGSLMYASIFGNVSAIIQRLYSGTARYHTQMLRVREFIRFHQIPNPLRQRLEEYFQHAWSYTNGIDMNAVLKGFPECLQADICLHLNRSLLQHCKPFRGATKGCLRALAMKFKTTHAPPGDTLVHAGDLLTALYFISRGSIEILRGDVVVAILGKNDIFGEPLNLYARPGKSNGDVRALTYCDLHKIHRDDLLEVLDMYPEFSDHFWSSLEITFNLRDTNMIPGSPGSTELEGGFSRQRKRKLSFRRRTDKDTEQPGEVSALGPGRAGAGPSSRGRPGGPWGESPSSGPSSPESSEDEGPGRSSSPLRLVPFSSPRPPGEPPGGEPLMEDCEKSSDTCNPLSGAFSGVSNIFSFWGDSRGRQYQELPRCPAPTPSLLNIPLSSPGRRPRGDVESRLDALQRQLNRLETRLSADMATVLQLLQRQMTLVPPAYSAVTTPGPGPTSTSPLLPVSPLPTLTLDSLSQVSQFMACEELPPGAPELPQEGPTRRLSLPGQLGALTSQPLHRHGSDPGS", "test": "primary screen, population patch clamp on CHO cells stably expressing hERG", "units": {"hERG current change (%, negative = inhibition) at 10uM": "%"}, "values": [
      {"smiles": "CCn1cc(C(=O)NCCc2ccccc2)c(=O)c2cc(S(=O)(=O)N(C)C)ccc21", "hERG current change (%, negative = inhibition) at 10uM": 7.05},
      {"smiles": "O=C(O)CCc1ccc(-c2ccccc2)n1-c1cccc(C(=O)O)c1", "hERG current change (%, negative = inhibition) at 10uM": 21.5},
      {"smiles": "CN(C)c1ccc(C2(c3ccc(N(C)C)cc3)OC(=O)c3cc(N)ccc32)cc1", "hERG current change (%, negative = inhibition) at 10uM": 22.1},
      {"smiles": "Cc1ccc(N2CC(C(=O)Nc3ccc(S(=O)(=O)N4CCOCC4)cc3)CC2=O)cc1Cl", "note": "(stereo not shown)", "hERG current change (%, negative = inhibition) at 10uM": 11.4},
      {"smiles": "CSc1cccc(CN2CCN(CCc3ccccc3)C(CCO)C2)c1", "note": "(stereo not shown)", "hERG current change (%, negative = inhibition) at 10uM": -80.4},
      {"smiles": "O=C1c2cccc3cccc(c23)C(=O)N1OS(=O)(=O)c1ccccc1", "hERG current change (%, negative = inhibition) at 10uM": 9.49},
      {"smiles": "COc1ccc(N2CCN(C(=O)NC34CC5CC(CC(C5)C3)C4)CC2)cc1", "hERG current change (%, negative = inhibition) at 10uM": -6.95},
      {"smiles": "CCc1[nH]c(C)c(C(C)=O)c1C", "hERG current change (%, negative = inhibition) at 10uM": 12.1},
      {"smiles": "Cc1nnc(SCC(=O)N(C2CCCCC2)C2CCS(=O)(=O)C2)n1N", "note": "(stereo not shown)", "hERG current change (%, negative = inhibition) at 10uM": 23.7},
      {"smiles": "CCCS(=O)(=O)N1CCCC(C(=O)NCCc2cccc(C)c2)C1", "note": "(stereo not shown)", "hERG current change (%, negative = inhibition) at 10uM": 7.6},
      {"smiles": "Cc1c(-n2c(=O)n(Cc3ccccc3)c(=O)c3[nH]cnc32)cccc1S(C)=O", "note": "(stereo not shown)", "hERG current change (%, negative = inhibition) at 10uM": -4.2},
      {"smiles": "Cc1ccc2[nH]c3c(c2c1)SC(C)(C)CC3=O", "hERG current change (%, negative = inhibition) at 10uM": 3.75},
      {"smiles": "CCOC(=O)c1sc(S(C)(=O)=O)c2c1CCc1conc1-2", "hERG current change (%, negative = inhibition) at 10uM": 8.59},
      {"smiles": "CC(Sc1nnc(CC(=O)Nc2ccccc2F)n1C)C(=O)Nc1nccs1", "note": "(stereo not shown)", "hERG current change (%, negative = inhibition) at 10uM": 8.41},
      {"smiles": "O=C(Nc1cccc(Oc2ccc(C(=O)O)c(C(=O)O)c2)c1)c1ccc(-c2ccccc2)cc1", "hERG current change (%, negative = inhibition) at 10uM": -0.459},
      {"smiles": "O=C(NCc1cccnc1)C(=O)Nc1ccc([N+](=O)[O-])cc1", "hERG current change (%, negative = inhibition) at 10uM": -21.2},
      {"smiles": "O=C(OC(C(=O)NCc1cccs1)c1ccc(F)cc1)c1ccco1", "note": "(stereo not shown)", "hERG current change (%, negative = inhibition) at 10uM": -3.68},
      {"smiles": "Cc1ccc(CCNC(=O)CS(=O)Cc2nc(-c3ccccc3Cl)oc2C)cc1", "note": "(stereo not shown)", "hERG current change (%, negative = inhibition) at 10uM": -26.1},
      {"smiles": "C/C(=N/NC(=O)c1ccc(Br)o1)c1ccc(C)o1", "hERG current change (%, negative = inhibition) at 10uM": -13.8},
      {"smiles": "NC(=O)Cn1ccc(O)c(Cc2ccc(Cl)cc2Cl)c1=O", "hERG current change (%, negative = inhibition) at 10uM": 19},
      {"smiles": "CCOC(=O)c1c(C)oc2c1c(C(c1ccncc1)N1CCOCC1)c(O)c1ccccc12", "note": "(stereo not shown)", "hERG current change (%, negative = inhibition) at 10uM": 6.38},
      {"smiles": "Cc1nn(CC(=O)N/N=C/c2cccs2)c(C)c1[N+](=O)[O-]", "hERG current change (%, negative = inhibition) at 10uM": 2.74},
      {"smiles": "CC(C(=O)Nc1cccc(S(=O)(=O)N2CCOCC2)c1)N1CCN(c2ccc(F)cc2)CC1", "note": "(stereo not shown)", "hERG current change (%, negative = inhibition) at 10uM": -40.3},
      {"smiles": "CC(C)C(=O)C1=Cc2cccc([N+](=O)[O-])c2OC1N1CCOCC1", "note": "(stereo not shown)", "hERG current change (%, negative = inhibition) at 10uM": -3.62},
      {"smiles": "CCOC(=O)c1sc(NC(=O)CN(CC(C)C)CC(C)C)c(C(=O)OCC)c1C", "hERG current change (%, negative = inhibition) at 10uM": 0.222},
      {"smiles": "O=C(NCCN1CCCCC1)Nc1ccccc1", "hERG current change (%, negative = inhibition) at 10uM": -23.2},
      {"smiles": "O=S(=O)(c1ccc(Cl)cc1)N1CCCC1c1nc2ccccc2s1", "note": "(stereo not shown)", "hERG current change (%, negative = inhibition) at 10uM": -21.4},
      {"smiles": "COc1ccccc1NC(=O)Cn1c(O)c(N=NC(=O)c2ccccc2O)c2ccccc21", "hERG current change (%, negative = inhibition) at 10uM": 14.2},
      {"smiles": "CCCN1CCN(CCCNC(=O)c2cc3c(=O)oc4ccc(C)cc4c3s2)CC1", "hERG current change (%, negative = inhibition) at 10uM": -27.4},
      {"smiles": "CCN(CC)C(=O)CSc1nnc([C@H](Cc2c[nH]c3ccccc23)NC(=O)OC(C)(C)C)o1", "hERG current change (%, negative = inhibition) at 10uM": -26.4},
      {"smiles": "O=C(CCc1ccccc1)NNC(=O)c1ccccc1C(=O)O", "hERG current change (%, negative = inhibition) at 10uM": 4.34},
      {"smiles": "O=C(Cc1ccc(F)cc1)OCC(=O)N1CCN(S(=O)(=O)c2ccc(Cl)cc2)CC1", "hERG current change (%, negative = inhibition) at 10uM": -29.9},
      {"smiles": "Cl.O=C(c1ccc(Cl)c(S(=O)(=O)N2CCCCCC2)c1)N1CCN(CCO)CC1", "hERG current change (%, negative = inhibition) at 10uM": -34.4},
      {"smiles": "Cc1ccc(C(=O)NCc2ccco2)cc1S(=O)(=O)N1CCCCC1", "hERG current change (%, negative = inhibition) at 10uM": -18.6},
      {"smiles": "O=C(NCC(c1cccnc1)N1CCN(c2ccc(F)cc2)CC1)OCc1ccccc1", "note": "(stereo not shown)", "hERG current change (%, negative = inhibition) at 10uM": -56.8},
      {"smiles": "O=C(Cn1cc(C(F)(F)F)ccc1=O)NCC1CCCO1", "note": "(stereo not shown)", "hERG current change (%, negative = inhibition) at 10uM": 12.1},
      {"smiles": "CC1CCCCC1NC(=O)C1CCN(S(=O)(=O)c2ccc(-n3cnnn3)cc2)CC1", "note": "(stereo not shown)", "hERG current change (%, negative = inhibition) at 10uM": 5.95},
      {"smiles": "CC1(C)Cc2c(cnn2-c2ccc(F)cc2)C(NC(=O)c2cnccn2)C1", "note": "(stereo not shown)", "hERG current change (%, negative = inhibition) at 10uM": -37.6},
      {"smiles": "C=CCNC(=O)C(=O)Nc1cc2c3c(c1)CCC(=O)N3CCC2", "hERG current change (%, negative = inhibition) at 10uM": -5.86},
      {"smiles": "COc1cc(-c2cc(C(=O)NCCc3ccc(S(N)(=O)=O)cc3)c3ccccc3n2)cc(OC)c1OC", "hERG current change (%, negative = inhibition) at 10uM": -10.3},
      {"smiles": "COc1ccccc1-n1c(SCC(=O)O)nnc1-c1ccc(S(=O)(=O)N2CCCCC2)cc1", "hERG current change (%, negative = inhibition) at 10uM": -3.46},
      {"smiles": "CCN(CC)S(=O)(=O)c1ccc(N2CCOCC2)c(NC(=O)COc2ccc(C#N)cc2)c1", "hERG current change (%, negative = inhibition) at 10uM": -21.3},
      {"smiles": "Cc1ccc(S(=O)(=O)N2CCN(C(=O)c3ccc(S(=O)(=O)N4CCCC4)cc3)CC2)cc1", "hERG current change (%, negative = inhibition) at 10uM": -6.64},
      {"smiles": "Fc1ccccc1-c1csc(-c2cccnc2)n1", "hERG current change (%, negative = inhibition) at 10uM": 14.4},
      {"smiles": "Nc1c(-c2cccc(Cl)c2)cnn1-c1cccc([N+](=O)[O-])c1", "hERG current change (%, negative = inhibition) at 10uM": -41.4},
      {"smiles": "COc1ccc(-n2nnc3c(=O)n(CC(=O)NCC4CCCO4)cnc32)cc1", "note": "(stereo not shown)", "hERG current change (%, negative = inhibition) at 10uM": 2.35},
      {"smiles": "Cc1cc(C)c2[nH]c(=O)c(=O)[nH]c2c1", "hERG current change (%, negative = inhibition) at 10uM": 9.04},
      {"smiles": "Cn1c(CNC(=O)OC(C)(C)C)n[nH]c1=S", "hERG current change (%, negative = inhibition) at 10uM": 15.2},
      {"smiles": "O=C(COc1ccc(Cl)cc1)NCc1ccncc1", "hERG current change (%, negative = inhibition) at 10uM": -14},
      {"smiles": "COc1ccc(OC)c(C(O)c2coc3ccc(O)c(CN4CCOCC4)c23)c1", "note": "(stereo not shown)", "hERG current change (%, negative = inhibition) at 10uM": -11.4},
      {"smiles": "OC(CNCc1ccc(F)cc1)(c1ccc(F)cc1)c1ccc(F)cc1", "hERG current change (%, negative = inhibition) at 10uM": -33.7},
      {"smiles": "O=C(NCCN1CCOCC1)C1CCN(S(=O)(=O)N2CCCCC2)CC1", "hERG current change (%, negative = inhibition) at 10uM": 11.1},
      {"smiles": "O=C(CN1CCN(Cc2ccccc2F)C1=O)NCc1ccco1", "hERG current change (%, negative = inhibition) at 10uM": 2.59},
      {"smiles": "CCOC(=O)c1ccc(-c2c(-c3ccccc3OC)oc3ccccc23)cc1F", "hERG current change (%, negative = inhibition) at 10uM": 11.6},
      {"smiles": "C[N+](C)(C)CCCCCC[N+](C)(C)C.[Br-]", "hERG current change (%, negative = inhibition) at 10uM": 4.51}
    ]}
  ]
}
